The target in assay [1] is T1, human TNFR2-Fc (etanercept) (human, UniProt P20333 23-257).
T1 construct: Commercial drug coated on ELISA plates (200 ng/well); also called immobilized TNF-R2; not shown: Fc part of etanercept
T1 sequence (looked up): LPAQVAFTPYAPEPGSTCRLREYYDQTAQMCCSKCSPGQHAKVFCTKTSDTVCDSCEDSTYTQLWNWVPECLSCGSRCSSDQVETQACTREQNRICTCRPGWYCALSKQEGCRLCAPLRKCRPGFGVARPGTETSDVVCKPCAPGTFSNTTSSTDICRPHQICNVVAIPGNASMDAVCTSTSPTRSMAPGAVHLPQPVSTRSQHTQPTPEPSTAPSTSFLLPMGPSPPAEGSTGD
In words: ELISA on coated etanercept, mean ± S.D., n = 3. The method, then: The binding of the scTNFR2-Fc(Δab) complexes to TNFR2-Fc (etanercept) was analyzed by ELISA. 96-well ELISA plates were coated with 200 ng/well etanercept in coating buffer (0.1 M sodium carbonate, pH 9.5) overnight at 4° C., blocked with 2% skim milk in PBS (MPBS) and washed with washing buffer PBST (PBS, 0.05 Tween 20). ScTNFR2-Fc(Δab) complexes were titrated in duplicates and incubated on the plates for 2 h at room temperature, followed by washing with PBST. Receptor-bound complexes were detected with mouse anti-huTNFα F6C5 (Novus, 1 μg/ml) and goat anti-mouse IgG(Fc)-HRP (Sigma-Aldrich, 1:10,000), followed by extensive washing with PBST each.
Background: ELISA stands for enzyme-linked immunosorbent assay.

The target in assay [2] is T2, human TNFR2 on stably transfected cells (MEF-TNFR2, HeLa-TNF-R2) (human, UniProt P20333 23-461).
T2 construct: whole, on cells; Same receptor on two transfected cell lines; the cell line is named under assay; also called human TNF receptor 2
T2 sequence (looked up): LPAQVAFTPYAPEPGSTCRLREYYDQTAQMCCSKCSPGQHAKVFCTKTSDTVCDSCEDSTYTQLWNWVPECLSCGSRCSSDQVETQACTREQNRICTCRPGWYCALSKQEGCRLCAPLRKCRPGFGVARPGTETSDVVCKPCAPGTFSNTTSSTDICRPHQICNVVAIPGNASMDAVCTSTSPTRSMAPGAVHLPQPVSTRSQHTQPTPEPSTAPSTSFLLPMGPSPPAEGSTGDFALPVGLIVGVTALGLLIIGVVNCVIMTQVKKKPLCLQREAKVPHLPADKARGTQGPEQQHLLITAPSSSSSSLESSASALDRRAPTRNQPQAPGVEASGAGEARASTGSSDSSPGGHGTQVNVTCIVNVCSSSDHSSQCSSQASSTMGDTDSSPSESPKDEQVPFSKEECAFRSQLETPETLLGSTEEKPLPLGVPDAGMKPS
In words: flow cytometry on HeLa-TNF-R2 cells after 3 days at 37 °C in 50% human blood plasma, experiment 1. Here is the method: (§1) FIG. 10: Stability of scTNFR2-Fc(Δab) complexes in human blood plasma. The integrity of the scTNFR2-Fc(Δab) complexes after incubation for 0 days (control), 3 days or 8 days in 50% human blood plasma at 37° C. was tested by their ability to bind HeLa-TNF-R2 cells in flow cytometry. The percentage of intact protein (mean±S. D., n=4) was calculated from reciprocals of the EC₅₀ values which were normalized to the non-incubated control (100%). Statistical analysis was performed by two-way ANOVA and Dunnett's post-test. Results were summarized as ****p <0.0001; ***p <0.001; **p <0.01; *p <0.05; n. s.=not significant.
(§2) The stability of the scTNFR2-Fc(Δab) proteins in human blood plasma after incubation periods of 3 and 8 days at 37° C. was assayed by binding of protein samples to HeLa cells stably overexpressing TNF-R2 (HeLa-TNF-R2, Richter et al., 2012, Mol. Cell Biol. 32, 2515-2529). […] After incubation, samples were stored at −80° C. and thawed prior testing the protein integrity by binding to HeLa-TNF-R2 in flow cytometry. […] Bound protein was detected with goat anti-human IgG Fcγ fragment specific-R-phycoerythrin antibody (Jackson ImmunoResearch, 1:500) for 1 h at 4° C. After two final washing steps with FACS buffer, cells were analyzed with a MACSQuant® VYB flow cytometer equipped with a 586/15 nm filter for detection of phycoerythrin.
In general terms: A flow cytometer gives signals particle by particle.

For assay [3], the target named is T2, human TNFR2 on stably transfected cells …. The experiment in a line: flow cytometry on HeLa-TNF-R2 cells after 3 days at 37 °C in 50% human blood plasma, experiment 3. Here is the method: as §1, §2
Assay [4] has the same target. The experiment in a line: flow cytometry on HeLa-TNF-R2 cells after 3 days at 37 °C in 50% human blood plasma, experiment 4. Here is the method:
as §1, §2

Assay [5] shares this target. In words: flow cytometry on HeLa-TNF-R2 cells after 0 days at 37 °C in 50% human blood plasma (control), experiment 1. Here is the method:
as §1, §2

B1: scTNFR2(139)-Fc(Δab) (744) (Fc fusion)
chain: [about 150 residues not given here]GGGGSDKPVAHVVANPQAEGQLQWLNRRANALLANGVELRDNQLVVPSEGLYLIYSQVLFKGQGCPSTHVLLTHTISRIAVSYQTKVNLLSAIKSPCQRETPEGAEAKPWYEPIYLGGVFQLEKGDRLSAEINRPDYLNFRESGQVYFGIIALGGGGSDKPVAHVVANPQAEGQLQWLNRRANALLANGVELRDNQLVVPSEGLYLIYSQVLFKGQGCPSTHVLLTHTISRIAVSYQTKVNLLSAIKSPCQRETPEGAEAKPWYEPIYLGGVFQLEKGDRLSAEINRPDYLNFRESGQVYFGIIALGGSGGGGSGGDKTHTCPPCPAPPVAGPSVFLFPPKPKDTLMISRTPEVTCVVVDVSHEDPEVKFNWYVDGVEVHNAKTKPREEQYNSTYRVVSVLTVLHQDWLNGKEYKCKVSNKGLPSSIEKTISKAKGQPREPQVYTLPPSRDELTKNQVSLTCLVKGFYPSDIAVEWESNGQPENNYKTTPPVLDSDGSFFLYSKLTVDKSRWQQGNVFSCSVMHEALHNHYTQKSLSLSPGK
notes: Hexavalent dimer through the Fc(Δab) region; no His tag
As to B1, the concentration for a half-maximal effect (EC50) stood at 0.309 nM in assay [1]; 0.0618 nM in assay [2]; 0.0654 nM in assay [3]; 0.0888 nM in assay [4]; 0.0548 nM in assay [5].

B2: scTNFR2(118)-Fc(Δab) (745) (Fc fusion)
chain: [about 150 residues not given here]GGGGSSSRTPSDKPVAHVVANPQAEGQLQWLNRRANALLANGVELRDNQLVVPSEGLYLIYSQVLFKGQGCPSTHVLLTHTISRIAVSYQTKVNLLSAIKSPCQRETPEGAEAKPWYEPIYLGGVFQLEKGDRLSAEINRPDYLNFRESGQVYFGIIALGGGGSSSRTPSDKPVAHVVANPQAEGQLQWLNRRANALLANGVELRDNQLVVPSEGLYLIYSQVLFKGQGCPSTHVLLTHTISRIAVSYQTKVNLLSAIKSPCQRETPEGAEAKPWYEPIYLGGVFQLEKGDRLSAEINRPDYLNFRESGQVYFGIIALGGSGGGGSGGDKTHTCPPCPAPPVAGPSVFLFPPKPKDTLMISRTPEVTCVVVDVSHEDPEVKFNWYVDGVEVHNAKTKPREEQYNSTYRVVSVLTVLHQDWLNGKEYKCKVSNKGLPSSIEKTISKAKGQPREPQVYTLPPSRDELTKNQVSLTCLVKGFYPSDIAVEWESNGQPENNYKTTPPVLDSDGSFFLYSKLTVDKSRWQQGNVFSCSVMHEALHNHYTQKSLSLSPGK
notes: as for B1
As to B2, the EC50 came to 0.419 nM in assay [1], 0.0784 nM in assay [3], 0.116 nM in assay [4] and 0.0731 nM in assay [5].

Broadly, the EC50 is the midpoint of the concentration-response curve. Read a high EC50 as lower potency in that assay.

The values above are taken from patent US20220267410A1 (UNIVERSITAT STUTTGART, published 2022).
